{"source": "PubChem BioAssay AID588855", "about": "(National Center for Advancing Translational Sciences (NCATS), 2011)", "note": "The whole screen tested about 410,000 compounds, of which about 5,000 (1.2%) were called active. This list was built around the results that the source calls inconclusive (neither active nor inactive); the mix of calls is not that of the screen. The call rests on the fitted dose curve; in most records, active means well fitted inhibition curve with a large enough effect; inconclusive means small, poorly fitted or top-dose-only effect; inactive means no such curve, though single readings can be large or run the other way. Where the call is inconclusive, the potency comes from a doubtful curve fit. On the % scale 0 is the no-effect control and ±100 the full control effect; potency means the concentration at half of the fitted maximal effect; tags describe the fitted curve by direction and shape.", "data": [{"assay": "qHTS for Inhibitors of TGF-b; further: nearly all actives have a fitted effect of over 65% in size", "conditions": "HepG2 CAGA-GFP TGF-b/SMAD3 reporter, GFP fluorescence, 18 h, TGF-beta stimulated, 500 pg/mL final; series mostly up to 46.1 µM; activity, negative = inhibition: at the top concentration", "method_in_brief": "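Inhibition was scored as loss of TGF-beta-induced (500 pg/mL final, 18 hours, 37 degrees C) GFP in HEPG2 cells carrying a CAGA-GFP reporter, in DMEM with 1% FBS. Well GFP was summed per cell; Activity was normalised to unstimulated and stimulated DMSO wells, then concentration-response fitting.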", "values": [{"smiles": "CN(C)S(=O)(=O)c1cccc(C(=O)Nc2cc(Cl)cc(Cl)c2)c1", "Potency": "inconclusive: 22.4 µM [inhibitor, single point]"}, {"smiles": "CCC(Cc1ccccc1)NC(=O)Cn1ncc2c3ccccc3n(Cc3ccc(F)cc3)c2c1=O", "note": "(stereo not given)", "Potency": "inconclusive: 3.16 µM [inhibitor, partial curve, poor fit]"}, {"smiles": "Cn1cnnc1SCC(=O)Nc1cccc(C(=O)O)c1", "Potency": "inconclusive: 20 µM [inhibitor, partial curve, poor fit]"}, {"smiles": "COc1ccc(Cl)cc1NC(=O)CCCS(=O)(=O)c1nc(-c2ccc(OC)c(OC)c2)cc(C(F)(F)F)n1", "Potency": "active: 2.82 µM"}, {"smiles": "Cc1cccc(NC2=C(NC(=O)c3ccccc3)C(=O)c3ccccc3C2=O)c1", "Potency": "inconclusive: 35.5 µM [inhibitor, single point]"}, {"smiles": "O=C(O)CCn1ccc2cc(S(=O)(=O)N3CCCCC3)ccc21", "activity, negative = inhibition": "inactive: -6.28%"}, {"smiles": "CCCCOC(=O)C1=C(C)Nc2ncnn2C1c1cccc(OC)c1OC", "note": "(stereo not given)", "Potency": "inconclusive: 22.4 µM [inhibitor, single point]"}, {"smiles": "O=C(C[N+]1(CC#Cc2ccccc2)CCCCC1)c1ccc(Cl)cc1", "activity, negative = inhibition": "inactive: 3.24%"}, {"smiles": "c1ccc2c3n(nc2c1)CCCO3", "Potency": "inconclusive: 5.62 µM [inhibitor, single point]"}, {"smiles": "CCOC(=O)C1CCN(C(=O)c2cccnc2Cl)CC1", "Potency": "inconclusive: 35.5 µM [inhibitor, single point]"}, {"smiles": "COc1ccc(CCNC(=O)/C=C/c2ccco2)cc1", "activity, negative = inhibition": "inactive: 5.64%"}, {"smiles": "Cc1cc(C)c2c(=O)[nH]c(SCc3ccccc3)nc2n1", "Potency": "inconclusive: 3.16 µM [inhibitor, single point]"}, {"smiles": "CCC(CC)C1C(C#N)=C(N)Oc2n[nH]c(-c3ccccc3)c21", "note": "(stereo not given)", "Potency": "inconclusive: 35.5 µM [inhibitor, single point]"}, {"smiles": "Cc1ccc(-c2n[nH]c3c2C(c2cccs2)N(c2ccc(Cl)cc2)C3=O)cc1", "note": "(stereo not given)", "Potency": "active: 11.2 µM"}, {"smiles": "Cc1cc(C)nc(N2CCC(C(=O)N3CCN(c4cc(Cl)ccc4C)CC3)CC2)n1", "Potency": "inconclusive: 14.1 µM [inhibitor, partial curve, poor fit]"}, {"smiles": "CN(c1ccccc1)S(=O)(=O)c1ccc(NC(=O)C2CCCCC2C(=O)O)cc1", "note": "(stereo not given)", "Potency": "inconclusive: 3.98 µM [inhibitor, single point]"}, {"smiles": "Cc1ccccc1N(CC(=O)NCc1ccncc1)S(C)(=O)=O", "Potency": "inconclusive: 5.62 µM [inhibitor, single point]"}, {"smiles": "O=C(CN1CCN(c2ccccc2)CC1)Nc1ccc(OCc2ccccc2)cc1", "Potency": "inconclusive: 35.5 µM [inhibitor, single point]"}, {"smiles": "Cc1ccc(NC(=O)CN2C(=O)/C(=C3\\SC(=S)N(C4CCS(=O)(=O)C4)C3=O)c3ccccc32)cc1", "note": "(stereo not given)", "activity, negative = inhibition": "inactive: 0%"}, {"smiles": "CCCOc1cccc(C2c3c(oc4cc(C)c(C)cc4c3=O)C(=O)N2CCCN2CCOCC2)c1", "note": "(stereo not given)", "Potency": "inconclusive: 35.5 µM [inhibitor, partial curve, poor fit]"}, {"smiles": "CCOC(=O)c1oc2ccc(S(=O)(=O)n3nc(-c4ccccc4)cc3N)cc2c1C", "Potency": "inconclusive: 15.8 µM [inhibitor, single point]"}, {"smiles": "CCOC(=O)CSc1nc2cc(OCC)ccc2cc1C#N", "Potency": "inconclusive: 3.16 µM [inhibitor, single point]"}, {"smiles": "CCOC(=O)C1=C(C)Nc2nc3ccccc3n2C1c1ccncc1", "note": "(stereo not given)", "Potency": "inconclusive: 20 µM [inhibitor, single point]"}, {"smiles": "CCc1ccc(CCC(=O)Nc2ncc(Cc3ccccc3Cl)s2)o1", "Potency": "active: 2 µM"}, {"smiles": "COc1ccc(CC(N)c2csc(NC(=O)c3ccccc3)n2)cc1", "note": "(stereo not given)", "activity, negative = inhibition": "inactive: -6.63%"}, {"smiles": "COCCNC(=S)N1CCN(S(C)(=O)=O)CC1", "Potency": "inconclusive: 11.2 µM [inhibitor, partial curve, poor fit]"}, {"smiles": "Cn1c(C(=O)N2CCN(c3cccc(C(F)(F)F)c3)CC2)cc2sccc21", "Potency": "inconclusive: 22.4 µM [inhibitor, single point]"}, {"smiles": "c1ccc(-n2nnnc2SCc2cccc(CSc3nnnn3-c3ccccc3)n2)cc1", "Potency": "inconclusive: 2 µM [inhibitor, full curve, poor fit]"}, {"smiles": "CCCCCCCCNCCS(=O)(=O)NCc1ccccc1OC", "Potency": "inconclusive: 35.5 µM [inhibitor, single point]"}, {"smiles": "Cc1cc(=O)oc(C)c1C(=O)n1nc(C)c2c1C[C@@H]1[C@H]2C1(C)C", "Potency": "inconclusive: 12.6 µM [inhibitor, partial curve, poor fit]"}, {"smiles": "CC(Sc1nnc(-c2ccco2)o1)C(=O)NCCC1=CCCCC1", "note": "(stereo not given)", "Potency": "inconclusive: 35.5 µM [inhibitor, partial curve, poor fit]"}, {"smiles": "CC1Cc2ccccc2N1S(=O)(=O)c1cccc(C(=O)NCc2ccco2)c1", "note": "(stereo not given)", "activity, negative = inhibition": "inactive: -15.9%"}, {"smiles": "C[C@@]12C(=O)N(CCc3c[nH]c4ccccc34)CC(=O)N1[C@H]1c3ccccc3OC[C@@H]1[C@@H]2c1ccccc1", "Potency": "inconclusive: 22.4 µM [inhibitor, single point]"}, {"smiles": "CSCC(=O)NC1CCCN(C2Cc3ccccc3C2)C1", "note": "(stereo not given)", "Potency": "inconclusive: 4.47 µM [inhibitor, single point]"}, {"smiles": "O=C(CCn1c2c(c3ccccc31)CCCC2)NNC(=O)c1ccccc1Cl", "Potency": "inconclusive: 35.5 µM [inhibitor, single point]"}, {"smiles": "COc1ccc(CNC(=O)C2CSC(c3ccc(OC)cc3)N2C(C)=O)cc1", "note": "(stereo not given)", "Potency": "inconclusive: 15.8 µM [inhibitor, single point]"}, {"smiles": "O=C(NN1C(=O)/C(=C/c2ccc(O)c([N+](=O)[O-])c2)SC1=S)c1ccccc1Cl", "Potency": "inconclusive: 0.398 µM [inhibitor, partial curve, poor fit]"}, {"smiles": "CCOc1ccc(NC(=O)c2nc(S(=O)(=O)Cc3ccc(C)cc3)ncc2Cl)cc1", "Potency": "inconclusive: 10 µM [inhibitor, partial curve, poor fit]"}, {"smiles": "CSc1ncc(Cl)c(C(=O)NCc2cccnc2)n1", "activity, negative = inhibition": "inactive: 10.1%"}, {"smiles": "CCOC(=O)c1ccc(NC(=O)c2ccc(-c3cccc(Cl)c3C)o2)cc1", "Potency": "inconclusive: 22.4 µM [inhibitor, single point]"}, {"smiles": "COc1ccc(-c2sc3ccc(N4CCOCC4)cc3c2C#CCCO)cc1", "Potency": "inconclusive: 35.5 µM [inhibitor, single point]"}, {"smiles": "Cc1ccccc1CNC(=O)CCSCc1cnn(-c2ccccc2)c1-n1cccc1", "activity, negative = inhibition": "inactive: -7.39%"}, {"smiles": "S=C(NCc1ccco1)Nc1ccc(Br)cc1Cl", "Potency": "inconclusive: 10 µM [inhibitor, partial curve]"}, {"smiles": "C/C(=N\\NC(=O)COc1ccc(C)cc1C(C)C)c1cc2ccccc2o1", "Potency": "inconclusive: 35.5 µM [inhibitor, single point]"}, {"smiles": "COc1ccc(NC(=O)CN(C)C(=O)C(Sc2ccccc2)c2ccccc2)cc1", "note": "(stereo not given)", "Potency": "inconclusive: 11.2 µM [inhibitor, single point]"}, {"smiles": "Fc1ccc2[nH]c3c(c2c1)CN(C(=S)NCc1ccccc1)CC3", "Potency": "inconclusive: 15.8 µM [inhibitor, partial curve, poor fit]"}, {"smiles": "CC1(Br)C2CCCC1C2S(=O)(=O)c1ccccc1", "note": "(stereo not given)", "Potency": "inconclusive: 14.1 µM [inhibitor, single point]"}, {"smiles": "C=CC[C@@H](Cc1ccc(F)cc1)C(=O)OC[C@H]1CCCN1C(=O)[C@@H](CC=C)CC(=O)N[C@H](CO)Cc1ccccc1", "Potency": "inconclusive: 20 µM [inhibitor, partial curve, poor fit]"}, {"smiles": "COc1ccc(CN2CCN(C(=O)c3cc(C4CC4)nn3-c3ccccc3)CC2)cc1F", "Potency": "inconclusive: 35.5 µM [inhibitor, single point]"}, {"smiles": "Cc1nnc(NC(=O)CSc2nnc3ncccn23)s1", "activity, negative = inhibition": "inactive: 2.7%"}, {"smiles": "CN1CCN(C(=O)c2cn(-c3ccccc3)nc2-c2cccnc2)CC1", "Potency": "inconclusive: 3.16 µM [inhibitor, single point]"}, {"smiles": "O=C(CCCOc1ccccc1)Nc1nc2ccccc2[nH]1", "Potency": "inconclusive: 11.2 µM [inhibitor, single point]"}, {"smiles": "Cc1c(C(=O)N(C)C2CCCCC2)sc2ncnc(N3CCN(c4ccccc4F)CC3)c12", "Potency": "inconclusive: 35.5 µM [inhibitor, single point]"}, {"smiles": "COc1ccc(OC)c2sc(N(CCCN(C)C)C(=O)c3ccco3)nc12", "Potency": "inconclusive: 35.5 µM [inhibitor, partial curve, poor fit]"}, {"smiles": "O=C(N/N=C\\c1ccc(O)c([N+](=O)[O-])c1)C1COc2ccccc2O1", "note": "(stereo not given)", "activity, negative = inhibition": "inactive: -5.23%"}, {"smiles": "COc1ccc(/C=N/c2nc3ccccc3n2C)cc1OC", "activity, negative = inhibition": "inactive: -7.56%"}, {"smiles": "CCCCOC(=O)c1ccc(NC(=O)c2ccccc2OC)cc1", "activity, negative = inhibition": "inactive: 1.12%"}, {"smiles": "Fc1ccc(N2CCN(c3ncnc4c3nc3n4CCCC3)CC2)cc1", "Potency": "inconclusive: 1.41 µM [inhibitor, full curve]"}, {"smiles": "Cn1c(CCN2CCCCCC2)nc2cc(NC(=O)Nc3ccccc3)ccc21", "Potency": "inconclusive: 12.6 µM [inhibitor, partial curve]"}, {"smiles": "O=c1nc(N(c2ccccc2)c2ccccc2)[nH]c(=O)[nH]1", "Potency": "inconclusive: 7.94 µM [inhibitor, partial curve]"}, {"smiles": "O=C(Nc1ccc(S(=O)(=O)N2CCCC2)cc1)c1cccs1", "Potency": "inconclusive: 5.01 µM [inhibitor, partial curve, poor fit]"}, {"smiles": "CCOC(=O)c1cc(C)sc1NC(=O)C(c1ccccc1)c1ccccc1", "Potency": "inconclusive: 35.5 µM [inhibitor, single point]"}, {"smiles": "O=C(COc1ccccc1)Nc1ccc2nc(SCC(=O)N3CCCC3)sc2c1", "Potency": "inconclusive: 0.794 µM [inhibitor, partial curve, poor fit]"}, {"smiles": "CCCNS(=O)(=O)c1cccc(C(=O)OCc2cc(=O)oc3cc(OC)ccc23)c1", "Potency": "inconclusive: 20 µM [inhibitor, partial curve, poor fit]"}, {"smiles": "COc1ccc(C2CC(=O)Oc3c2c(=O)n(C)c2ccccc32)c(OC)c1OC", "note": "(stereo not given)", "Potency": "inactive"}]}]}
